Some of the results follow. Repeats are few or missing, and single values can be far off.
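Also: cell number obtained by counting DAPI-stained nuclei in high-throughput microscope images with image analysis software, screen run in 1,536-well plates.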

The subject of the assay is IPC-298. Put plainly: cell count relative to DMSO control; melanoma cells; higher = more viable cells. To be noted: library dose: low library concentration; 72 h.
In turn, `CCN(CC)CCNC(=O)c1c(C)[nH]c(/C=C2\C(=O)Nc3ccc(F)cc32)c1C` [sunitinib] + Clc1ccc(Nc2nnc(Cc3ccncc3)c3ccccc23)cc1 [vatalanib] (first compound 0.4 µM, partner dose 2 µM) showed a cell count of 94.1%.
In the case of `COc1cc([C@@H]2c3cc4c(cc3[C@@H](O[C@@H]3O[C@@H]5CO[C@@H](C)O[C@H]5[C@H](O)[C@H]3O)[C@H]3COC(=O)[C@H]23)OCO4)cc(OC)c1O` [etoposide] + Cn1c(Nc2ccc(C(F)(F)F)cc2)nc2cc(Oc3ccnc(-c4ncc(C(F)(F)F)[nH]4)c3)ccc21 [CHIR265] (first compound 0.02 µM, partner dose 0.08 µM) it was 58%.
For `CCN(CC)CCNC(=O)c1c(C)[nH]c(/C=C2\C(=O)Nc3ccc(F)cc32)c1C` [sunitinib] + O=C(O)[C@@H]1[O][Sb](=[O])([O][Sb]2(=[O])[O][C@H]([C@H](O)CO)[C@H](O)[C@H](C(=O)O)[O]2)[O][C@H]([C@H](O)CO)[C@@H]1O [stibogluconate] (first compound 0.4 µM, partner dose 2 µM), the cell count was determined as 96.4%.
As for `COc1cc([C@@H]2c3cc4c(cc3[C@@H](O[C@@H]3O[C@@H]5CO[C@@H](C)O[C@H]5[C@H](O)[C@H]3O)[C@H]3COC(=O)[C@H]23)OCO4)cc(OC)c1O` [etoposide] + Cc1nc(Nc2ncc(C(=O)Nc3c(C)cccc3Cl)s2)cc(N2CCN(CCO)CC2)n1 [dasatanib] (first compound 0.02 µM, partner dose 0.004 µM), the cell count is 98.7%.

The record behind these values is the supplement of paper PMC4604168 (melanoma cell lines).
